In the CheMixHub viscosity set:
± gives the uncertainty stated by the source. For part of its entries the source gives two or more results. They are shown here; other results are not. There may be further records. Values that stand side by side are repeats (runs, samples, wells, individuals or studies). Brackets tell where a record comes from. Letters count within one entry. Marks such as (2×) count equal records among those shown.

Which results are given for `CO`?
viscosity (298.15 K, 101 kPa): 0.7 ± 0.03 mPa·s [study A] and 0.542 ± 0.005 mPa·s [study B] and 0.533 ± 0.006 mPa·s [study C] and 0.554 ± 0.0056 mPa·s [study D] and 0.5417 ± 0.005 mPa·s [study E] and 0.5418 ± 0.054 mPa·s [study F]; viscosity (303.15 K, 101 kPa): 0.533 ± 0.044 mPa·s [study A] and 0.521 ± 0.011 mPa·s [study B] and 0.66 ± 0.03 mPa·s [study C] and 0.47 ± 0.005 mPa·s [study D] and 0.545 ± 0.011 mPa·s [study E]; viscosity (308.15 K, 101 kPa): 0.411 ± 0.005 mPa·s, 0.4745 ± 0.0051 mPa·s, 0.464 ± 0.0046 mPa·s, 0.4717 ± 0.0045 mPa·s (2×), 0.495 ± 0.052 mPa·s, 0.47 ± 0.01 mPa·s, 0.477 ± 0.012 mPa·s, 0.4741 ± 0.048 mPa·s, 0.4833 ± 0.0044 mPa·s, 0.4774 ± 0.004 mPa·s, 0.491 ± 0.01 mPa·s, 0.61 ± 0.03 mPa·s [several studies]; viscosity (313.15 K, 101 kPa): 0.453 ± 0.01 mPa·s, 0.453 ± 0.013 mPa·s, 0.43 ± 0.01 mPa·s, 0.457 ± 0.004 mPa·s, 0.514 ± 0.044 mPa·s, 0.465 ± 0.01 mPa·s, 0.443 ± 0.089 mPa·s, 0.455 ± 0.007 mPa·s, 0.442 ± 0.044 mPa·s, 0.57 ± 0.02 mPa·s, 0.4539 ± 0.012 mPa·s [several studies]

Which viscosity (298.15 K, 101.33 kPa) does the source give for `COCCOCCOC` here?
Its viscosity is 0.973 ± 0.013 mPa·s [study A] and 0.973 ± 0.013 mPa·s [study B] and 0.991 ± 0.025 mPa·s [study C] and 0.992 ± 0.025 mPa·s, 0.992 ± 0.013 mPa·s [study D] and 0.973 ± 0.012 mPa·s [study E] and 0.991 ± 0.013 mPa·s, 0.991 ± 0.007 mPa·s [study F] and 0.99 ± 0.012 mPa·s [study G].

What about the viscosity (308.15 K, 101.33 kPa) of the same molecule?
Its viscosity is 0.839 ± 0.012 mPa·s [study A] and 0.839 ± 0.012 mPa·s [study B] and 0.842 ± 0.021 mPa·s [study C] and 0.845 ± 0.022 mPa·s, 0.845 ± 0.011 mPa·s [study D] and 0.839 ± 0.011 mPa·s [study E] and 0.842 ± 0.011 mPa·s, 0.842 ± 0.006 mPa·s [study F] and 0.839 ± 0.011 mPa·s, 0.829 ± 0.011 mPa·s [study G].

What about the viscosity (313.15 K, 101.33 kPa) of the same molecule?
Its viscosity is 0.781 ± 0.011 mPa·s [study A] and 0.781 ± 0.011 mPa·s [study B] and 0.786 ± 0.02 mPa·s [study C] and 0.781 ± 0.01 mPa·s [study D] and 0.786 ± 0.006 mPa·s [study E].

Which results are given for `COC(=O)OC`?
viscosity (298.15 K, 101.3 kPa): 0.588 ± 0.013 mPa·s [study A] and 0.629 ± 0.006 mPa·s [study B] and 0.589 ± 0.008 mPa·s [study C] and 0.56 ± 0.12 mPa·s [study D]; viscosity (298.15 K, 101.33 kPa): 0.534 ± 0.016 mPa·s [study A] and 0.589 ± 0.006 mPa·s [study B] and 0.589 ± 0.008 mPa·s [study C] and 0.589 ± 0.01 mPa·s [study D] and 0.589 ± 0.008 mPa·s [study E]

Which viscosity (293.15 K, 101 kPa) does the source give for `CCCO` here?
The viscosity was 2.147 ± 0.013 mPa·s [study A] and 2.18 ± 0.07 mPa·s [study B] and 2.102 ± 0.039 mPa·s [study C] and 2.152 ± 0.013 mPa·s [study D].

And the viscosity (303.15 K, 101.33 kPa)?
The viscosity was 1.818 ± 0.018 mPa·s [study A] and 1.546 ± 0.037 mPa·s [study B] and 1.784 ± 0.011 mPa·s [study C] and 1.784 ± 0.014 mPa·s [study D] and 1.784 ± 0.021 mPa·s [study E].

What about the viscosity (313.15 K, 101 kPa) of the same molecule?
The viscosity was 1.416 ± 0.03 mPa·s [study A] and 1.32 ± 0.062 mPa·s [study B] and 1.418 ± 0.014 mPa·s [study C] and 1.313 ± 0.0085 mPa·s [study D].

And the viscosity (318.15 K, 101 kPa)?
The viscosity was 1.273 ± 0.027 mPa·s [study A] and 1.273 ± 0.013 mPa·s [study B] and 1.174 ± 0.015 mPa·s [study C] and 1.185 ± 0.0078 mPa·s [study D].
